Assay results published in a collection of fitness landscapes (doi:10.1016/j.celrep.2020.107928).
Over roughly 81,000 sequences, “one-hybrid fitness for binding parS DNA” has its median near -0.17; the highest 2% begin near 0.51. The list shows a part of the results.

B1: Caulobacter ParB omega fusion; a variant is named by its letters at X, in order, B8GW30 (parent)
chain: MESVVVGEPGMSEGRRGLGRGLSALLGEVDAAPAQAPGEQLGGSREAPIEILQRNPDQPRRTFREEDLEDLSNSIREKGVLQPILVRPSPDTAGEYQIVAGERAWRAAQRAGLKTVPIMVRELDDLAVLEIGIIENVQRADLNVLEEALSYKVLMEKFERTQENIAQTIGKSXSHVANXMRLLXLPDEVQSYLVSGELTAXHARAIAAAADPVALAKQIIEGGLSVRETEALARKAPNLSAGKSKGGRPPRVKDTDTQALESDLSSVLGLDVSIDHRGSTGTLTITYATLEQLDDLCNRLTRGI

Variants of: B1
Assay: one-hybrid fitness for binding parS DNA (scaled: cognate 1, non-cognate 0); higher = stronger binding
Conditions: with parS DNA site
Method in brief: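 Bacterial one-hybrid selection in E. coli USO rpoZ- hisB- pyrF- with a HIS3 reporter carrying the site 19 bp from the promoter, screening Caulobacter ParB libraries with four specificity codons randomised (NNS). Cells grew 48 hours at 37°C on M9-minus-histidine plus 0.1 mM IPTG and 5 mM 3-AT. Plasmids before and after selection were Illumina-sequenced, three replicate libraries pooled, and variants under 10 reads dropped. Fitness is the log change in variant-to-wild-type read ratio, rescaled to cognate 1, non-cognate 0.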

Variant	one-hybrid fitness for binding parS DNA
CLPK	≤ 0.2
PPNK	≤ 0.2
VLDT	≤ 0.2
HQCK	≤ 0.2
NIAG	≤ 0.2
GVST	≤ 0.2
ILHT	≤ 0.2
IWVR	≤ 0.2
MHLR	≤ 0.2
PREI	≤ 0.2
INRL	≤ 0.2
RHAA	0.534
YNNM	≤ 0.2
GMTG	≤ 0.2
LSFL	≤ 0.2
PSSF	≤ 0.2
HRVR	≤ 0.2
QTDV	≤ 0.2
VMEV	≤ 0.2
ATWS	≤ 0.2
GLHW	≤ 0.2
VRRG	≤ 0.2
ARLL	≤ 0.2
PVYV	≤ 0.2

Variant	one-hybrid fitness for binding parS DNA
QNTK	≤ 0.2
HHDC	≤ 0.2
YKPM	≤ 0.2
RKED	≤ 0.2
GDES	≤ 0.2
TPKM	≤ 0.2
SKPG	≤ 0.2
MQYG	≤ 0.2
TEDN	≤ 0.2
MATF	≤ 0.2
NIFR	≤ 0.2
SLEL	≤ 0.2
SFLE	≤ 0.2
VCRI	≤ 0.2
PWKC	≤ 0.2
AEMW	≤ 0.2
PPTW	≤ 0.2
HTKN	≤ 0.2
PVII	≤ 0.2
NTHL	≤ 0.2
GVHC	≤ 0.2
ESQR	≤ 0.2
DRSD	≤ 0.2
RIYF	0.265

Variant	one-hybrid fitness for binding parS DNA
RRCY	0.26
PWKH	≤ 0.2
SVKR	≤ 0.2
RLHG	1.01
VAIN	≤ 0.2
KLVC	≤ 0.2
VPSP	≤ 0.2
GLQI	≤ 0.2
KKYR	≤ 0.2
RHST	0.854
GHKE	≤ 0.2
IKFI	≤ 0.2
TGYG	≤ 0.2
PCWV	≤ 0.2
DIAF	≤ 0.2
TGNF	≤ 0.2
NHIS	≤ 0.2
IRAA	≤ 0.2
PHPA	≤ 0.2
DAPF	≤ 0.2
KVAT	≤ 0.2
HSVT	≤ 0.2
KWKS	0.429
HALK	≤ 0.2

Variant	one-hybrid fitness for binding parS DNA
ECYG	≤ 0.2
HKAV	≤ 0.2
RTAN	0.429
QKKE	≤ 0.2
ENPT	≤ 0.2
QCNI	≤ 0.2
NNKV	≤ 0.2
VSGV	≤ 0.2
AHRE	≤ 0.2
GSKT	≤ 0.2
SPIG	≤ 0.2
NDYL	≤ 0.2
ARPG	≤ 0.2
NSIT	≤ 0.2
VRSL	≤ 0.2
EAIR	≤ 0.2
PQMS	≤ 0.2
FNYT	≤ 0.2
FRPA	≤ 0.2
VRTY	≤ 0.2
RTYH	0.266
RTKT	0.74
QLSS	≤ 0.2
SRHD	≤ 0.2

Variant	one-hybrid fitness for binding parS DNA
NEDR	≤ 0.2
QLIF	≤ 0.2
KATG	≤ 0.2
WDAM	≤ 0.2
QDCS	≤ 0.2
HEIS	≤ 0.2
GVGE	≤ 0.2
FESS	≤ 0.2
NTHA	≤ 0.2
WYQR	≤ 0.2
TSED	≤ 0.2
TWLN	≤ 0.2
RSHR	≤ 0.2
AEKA	≤ 0.2
LTWN	≤ 0.2
DTMA	≤ 0.2
PLVF	≤ 0.2
CAIG	≤ 0.2
MMSR	≤ 0.2
LEMC	≤ 0.2
WREL	≤ 0.2
SLLF	≤ 0.2
HLMT	≤ 0.2
DMSK	≤ 0.2

Variant	one-hybrid fitness for binding parS DNA
WRQA	≤ 0.2
KTMC	≤ 0.2
FAYC	≤ 0.2
SPAT	≤ 0.2
ASKC	≤ 0.2
PSDI	≤ 0.2
PMSP	≤ 0.2
RHQG	0.973
HSRH	≤ 0.2
ETKC	≤ 0.2
EHLS	≤ 0.2
EISP	≤ 0.2
QVND	≤ 0.2
FMAG	≤ 0.2
CGRY	≤ 0.2
LAVW	≤ 0.2
QILV	≤ 0.2
FNKS	≤ 0.2
SYYY	≤ 0.2
TAGD	≤ 0.2
RGSW	≤ 0.2
GFHT	≤ 0.2
AMDG	≤ 0.2
EVAF	≤ 0.2

Variant	one-hybrid fitness for binding parS DNA
MADY	≤ 0.2
HQWR	≤ 0.2
EMSI	≤ 0.2
PEQW	≤ 0.2
DFQC	≤ 0.2
GPHA	≤ 0.2
SATI	≤ 0.2
QGRR	≤ 0.2
TQNY	≤ 0.2
RQAI	≤ 0.2
AHRR	≤ 0.2
NYFR	≤ 0.2
TPCL	≤ 0.2
YLMG	≤ 0.2
GMRR	≤ 0.2
VWGF	≤ 0.2
QNKR	≤ 0.2
RDPC	≤ 0.2
QKYN	≤ 0.2
GSPK	≤ 0.2
SHNN	≤ 0.2
QILG	≤ 0.2
QGTD	≤ 0.2
DERH	≤ 0.2

Variant	one-hybrid fitness for binding parS DNA
QHYC	≤ 0.2
MPKV	≤ 0.2
GTFT	≤ 0.2
WPVW	≤ 0.2
RQII	≤ 0.2
LCKC	≤ 0.2
QMLR	≤ 0.2
HYDS	≤ 0.2
PHRC	≤ 0.2
ATHC	≤ 0.2
DALV	≤ 0.2
NYKC	≤ 0.2
AIVN	≤ 0.2
VWTM	≤ 0.2
NMFK	≤ 0.2
FIHC	≤ 0.2
TCMV	≤ 0.2
PNWP	≤ 0.2
PSQS	≤ 0.2
MNGR	≤ 0.2
LCNI	≤ 0.2
IGPE	≤ 0.2
THKH	≤ 0.2
PIYW	≤ 0.2

Variant	one-hybrid fitness for binding parS DNA
GLTY	≤ 0.2
IPCR	≤ 0.2
RWHY	0.275
PPSD	≤ 0.2
AAGS	≤ 0.2
QREE	≤ 0.2
RMTR	≤ 0.2
SMLL	≤ 0.2
FNHC	≤ 0.2
PTLM	≤ 0.2
CVFG	≤ 0.2
RYVI	≤ 0.2
LQTN	≤ 0.2
FAKT	≤ 0.2
LSGI	≤ 0.2
MLKA	≤ 0.2
TSNV	≤ 0.2
CLCT	≤ 0.2
RAWG	0.989
HAHE	≤ 0.2
QAPL	≤ 0.2
ATFH	≤ 0.2
NIHF	≤ 0.2
HIYR	≤ 0.2

Variant	one-hybrid fitness for binding parS DNA
YPCW	≤ 0.2
PTNN	≤ 0.2
HKRW	≤ 0.2
SQAH	≤ 0.2
QQGM	≤ 0.2
SQWS	≤ 0.2
RNET	0.498
LRAT	≤ 0.2
ATES	≤ 0.2
RAND	0.215
TYIV	≤ 0.2
ADIF	≤ 0.2
ESVL	≤ 0.2
TPPW	≤ 0.2
RWST	0.665
MDDQ	≤ 0.2
MRCT	≤ 0.2
CRAS	≤ 0.2
QTFN	≤ 0.2
CAAN	≤ 0.2
TCDD	≤ 0.2
QYPA	≤ 0.2
RKVE	≤ 0.2
RGDR	≤ 0.2

Variant	one-hybrid fitness for binding parS DNA
HYEM	≤ 0.2
LTTI	≤ 0.2
MIWC	≤ 0.2
TTNF	≤ 0.2
CRRT	≤ 0.2
QNNS	≤ 0.2
IGDG	≤ 0.2
QKFV	≤ 0.2
HCNW	≤ 0.2
AVQY	≤ 0.2
LMSA	≤ 0.2
TAMS	≤ 0.2
ATNP	≤ 0.2
LLDM	≤ 0.2
KWNY	≤ 0.2
QRDY	≤ 0.2
QMNW	≤ 0.2
HRKH	≤ 0.2
DETS	≤ 0.2
QVLS	≤ 0.2
MRMT	≤ 0.2
AMKY	≤ 0.2
VVFF	≤ 0.2
LRPR	≤ 0.2

Variant	one-hybrid fitness for binding parS DNA
MLEM	≤ 0.2
SEPR	≤ 0.2
DRWH	≤ 0.2
EVPR	≤ 0.2
WKGR	≤ 0.2
RIRY	0.617
QKME	≤ 0.2
RIFV	≤ 0.2
CYMV	≤ 0.2
HIVT	≤ 0.2
TCPC	≤ 0.2
GGDG	≤ 0.2
CPSF	≤ 0.2
AFTK	≤ 0.2
EGSR	≤ 0.2
QCRG	≤ 0.2
ILPM	≤ 0.2
VPIC	≤ 0.2
WKCC	≤ 0.2
PTPS	≤ 0.2
DENS	≤ 0.2
IHNA	≤ 0.2
NRPD	≤ 0.2
LDAM	≤ 0.2

Variant	one-hybrid fitness for binding parS DNA
SRIV	≤ 0.2
DMHC	≤ 0.2
TSWY	≤ 0.2
KIMR	≤ 0.2
QCAT	≤ 0.2
NELG	≤ 0.2
RNKC	0.917
TIEG	≤ 0.2
VWPR	≤ 0.2
QLRM	≤ 0.2
WAPT	≤ 0.2
ANWM	≤ 0.2
VMVD	≤ 0.2
DLNT	≤ 0.2
CFRK	≤ 0.2
YMLW	≤ 0.2
LTGL	≤ 0.2
AGIS	≤ 0.2
